According to the supplement of paper PMC9151546:
Single values are uncertain, as repeats are few or missing.

Key:
CHO-K1 [1] = test: relative survival (nuclei to bead ratio vs DMSO control) (% of vehicle control); higher = more surviving cells
Experimental: (§1)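 Flow-cytometric in vitro micronucleus assay (Litron MicroFlow) in CHO-K1 cells in 96-well plates, 19 concentrations (4.5-200 µM, n=1 per concentration). Without S9, cells were exposed for 24 h and sampled at 48 h. With Aroclor 1254-induced rat liver S9, cells were exposed for 3-4 h and sampled at 27-28 h. Read-outs are %MN and %hypodiploid nuclei relative to nucleated events, and relative survival as the nuclei-to-bead ratio versus the 1% DMSO vehicle control (x100).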

CHO-K1 [2] = test: micronucleus frequency (% of nucleated events); higher = more micronuclei (genotoxic)
CHO-K1 [3] = test: hypodiploid nuclei frequency (% of nucleated events); higher = more hypodiploid events (aneugenic)
Experimental: as §1
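Wherever hypodiploid nuclei frequency (% of nucleated events) is given: hypodiploid nuclei gated on a flow cytometer with 488 nm excitation after SYTOX Green staining, cultures at 37 °C, positive controls vinblastine without S9 and cyclophosphamide with S9.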
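Wherever micronucleus frequency (% of nucleated events) is given: cells lysed with nuclei stained by SYTOX Green, then micronucleus-gated events counted against nucleated events by flow cytometry with 488 nm excitation.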
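Wherever relative survival (nuclei to bead ratio vs DMSO control) is given: Lysed-cell nuclei stained with SYTOX Green and counted against counting beads by flow cytometry at 488 nm excitation, with vinblastine (no S9) and cyclophosphamide (plus S9) as positive controls.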

Cc1ccc(N)c(N)c1 [3,4-Diaminotoluene]
Conditions	hypodiploid nuclei frequency, CHO-K1 [3] [%]	micronucleus frequency, CHO-K1 [2] [%]	relative survival, CHO-K1 [1]
concentration: 4.55 (µM), S9 metabolic activation: with S9, exposure time: 3-4 hours	0.4	1.84	119
concentration: 4.55 (µM), S9 metabolic activation: without S9, exposure time: 24 hours	0.78	2.6	109
concentration: 5.69 (µM), S9 metabolic activation: with S9, exposure time: 3-4 hours	0.12	1.54	89.5
concentration: 5.69 (µM), S9 metabolic activation: without S9, exposure time: 24 hours	0.94	1.8	124
concentration: 7.11 (µM), S9 metabolic activation: with S9, exposure time: 3-4 hours	0.18	1.24	81.6
concentration: 7.11 (µM), S9 metabolic activation: without S9, exposure time: 24 hours	1.28	2.62	114
concentration: 8.88 (µM), S9 metabolic activation: with S9, exposure time: 3-4 hours	0.28	1.18	97.7
concentration: 8.88 (µM), S9 metabolic activation: without S9, exposure time: 24 hours	0.8	2.58	123
concentration: 11.1 (µM), S9 metabolic activation: with S9, exposure time: 3-4 hours	0.26	1.36	96.2
concentration: 11.1 (µM), S9 metabolic activation: without S9, exposure time: 24 hours	1.1	1.94	108
concentration: 13.9 (µM), S9 metabolic activation: with S9, exposure time: 3-4 hours	0.2	0.98	93.4
concentration: 13.9 (µM), S9 metabolic activation: without S9, exposure time: 24 hours	0.86	2.44	139
concentration: 17.4 (µM), S9 metabolic activation: with S9, exposure time: 3-4 hours	0.22	1.4	93.1
concentration: 17.4 (µM), S9 metabolic activation: without S9, exposure time: 24 hours	0.76	1.76	92.1
concentration: 21.7 (µM), S9 metabolic activation: with S9, exposure time: 3-4 hours	0.3	1.88	108
concentration: 21.7 (µM), S9 metabolic activation: without S9, exposure time: 24 hours	1.02	1.88	107
concentration: 27.1 (µM), S9 metabolic activation: with S9, exposure time: 3-4 hours	0.08	1.62	82.9
concentration: 27.1 (µM), S9 metabolic activation: without S9, exposure time: 24 hours	0.68	2.08	89.5
concentration: 33.9 (µM), S9 metabolic activation: with S9, exposure time: 3-4 hours	0.12	0.86	57.2
concentration: 33.9 (µM), S9 metabolic activation: without S9, exposure time: 24 hours	0.92	1.78	71.8
concentration: 42.4 (µM), S9 metabolic activation: with S9, exposure time: 3-4 hours	0.26	1.38	73.9
concentration: 42.4 (µM), S9 metabolic activation: without S9, exposure time: 24 hours	1.1	1.98	78.1
concentration: 53 (µM), S9 metabolic activation: with S9, exposure time: 3-4 hours	0.16	1.18	65
concentration: 53 (µM), S9 metabolic activation: without S9, exposure time: 24 hours	1.02	2.56	78.1
concentration: 66.2 (µM), S9 metabolic activation: with S9, exposure time: 3-4 hours	0.26	1.16	59.4
concentration: 66.2 (µM), S9 metabolic activation: without S9, exposure time: 24 hours	1.48	2.26	65.3
concentration: 82.7 (µM), S9 metabolic activation: with S9, exposure time: 3-4 hours	0.26	1.24	77.9
concentration: 82.7 (µM), S9 metabolic activation: without S9, exposure time: 24 hours	2.78	3.2	79.6
concentration: 103 (µM), S9 metabolic activation: with S9, exposure time: 3-4 hours	0.14	1.56	73.7
concentration: 103 (µM), S9 metabolic activation: without S9, exposure time: 24 hours	9.94	3.16	43.4
concentration: 129 (µM), S9 metabolic activation: with S9, exposure time: 3-4 hours	0.12	1.06	54.1
concentration: 129 (µM), S9 metabolic activation: without S9, exposure time: 24 hours	3.66	3.8	50.9
concentration: 162 (µM), S9 metabolic activation: with S9, exposure time: 3-4 hours	0.28	1.62	56.7
concentration: 162 (µM), S9 metabolic activation: without S9, exposure time: 24 hours	–	–	33.5
concentration: 202 (µM), S9 metabolic activation: with S9, exposure time: 3-4 hours	0.16	1.58	84.5
concentration: 202 (µM), S9 metabolic activation: without S9, exposure time: 24 hours	2.02	3	44

CN(C)c1ccccc1 [N,N-Dimethylaniline]
Conditions	hypodiploid nuclei frequency, CHO-K1 [3] [%]	micronucleus frequency, CHO-K1 [2] [%]	relative survival, CHO-K1 [1]
concentration: 4.46 (µM), S9 metabolic activation: with S9, exposure time: 3-4 hours	0.14	1.54	168
concentration: 4.46 (µM), S9 metabolic activation: without S9, exposure time: 24 hours	0.7	2.32	113
concentration: 5.57 (µM), S9 metabolic activation: with S9, exposure time: 3-4 hours	0.42	1.34	117
concentration: 5.57 (µM), S9 metabolic activation: without S9, exposure time: 24 hours	0.62	2.24	97
concentration: 6.97 (µM), S9 metabolic activation: with S9, exposure time: 3-4 hours	0.16	1.06	143
concentration: 6.97 (µM), S9 metabolic activation: without S9, exposure time: 24 hours	0.5	1.42	110
concentration: 8.71 (µM), S9 metabolic activation: with S9, exposure time: 3-4 hours	0.18	1.06	140
concentration: 8.71 (µM), S9 metabolic activation: without S9, exposure time: 24 hours	0.52	1.84	97.8
concentration: 10.9 (µM), S9 metabolic activation: with S9, exposure time: 3-4 hours	0.18	1.24	146
concentration: 10.9 (µM), S9 metabolic activation: without S9, exposure time: 24 hours	0.68	2.32	95
concentration: 13.6 (µM), S9 metabolic activation: with S9, exposure time: 3-4 hours	0.16	1.08	121
concentration: 13.6 (µM), S9 metabolic activation: without S9, exposure time: 24 hours	0.46	1.88	95
concentration: 17 (µM), S9 metabolic activation: with S9, exposure time: 3-4 hours	0.2	1.6	125
concentration: 17 (µM), S9 metabolic activation: without S9, exposure time: 24 hours	0.44	1.28	117
concentration: 21.3 (µM), S9 metabolic activation: with S9, exposure time: 3-4 hours	0.12	1.08	134
concentration: 21.3 (µM), S9 metabolic activation: without S9, exposure time: 24 hours	0.56	1.54	103
concentration: 26.6 (µM), S9 metabolic activation: with S9, exposure time: 3-4 hours	0.38	1.34	188
concentration: 26.6 (µM), S9 metabolic activation: without S9, exposure time: 24 hours	0.94	1.3	87.1
concentration: 33.2 (µM), S9 metabolic activation: with S9, exposure time: 3-4 hours	0.3	1.34	167
concentration: 33.2 (µM), S9 metabolic activation: without S9, exposure time: 24 hours	0.58	1.78	132
concentration: 41.5 (µM), S9 metabolic activation: with S9, exposure time: 3-4 hours	0.24	1.56	143
concentration: 41.5 (µM), S9 metabolic activation: without S9, exposure time: 24 hours	0.8	1.82	110
concentration: 51.9 (µM), S9 metabolic activation: with S9, exposure time: 3-4 hours	0.24	1.54	136
concentration: 51.9 (µM), S9 metabolic activation: without S9, exposure time: 24 hours	0.92	1.76	104
concentration: 64.9 (µM), S9 metabolic activation: with S9, exposure time: 3-4 hours	0.2	1.2	120
concentration: 64.9 (µM), S9 metabolic activation: without S9, exposure time: 24 hours	0.98	2.14	95.8
concentration: 81.1 (µM), S9 metabolic activation: with S9, exposure time: 3-4 hours	0.2	1.42	140
concentration: 81.1 (µM), S9 metabolic activation: without S9, exposure time: 24 hours	1.08	2.66	102
concentration: 101 (µM), S9 metabolic activation: with S9, exposure time: 3-4 hours	0.3	1.72	151
concentration: 101 (µM), S9 metabolic activation: without S9, exposure time: 24 hours	0.88	2.18	91.2
concentration: 127 (µM), S9 metabolic activation: with S9, exposure time: 3-4 hours	0.14	1.34	145
concentration: 127 (µM), S9 metabolic activation: without S9, exposure time: 24 hours	1	1.9	99.5
concentration: 158 (µM), S9 metabolic activation: with S9, exposure time: 3-4 hours	0.18	1.2	143
concentration: 158 (µM), S9 metabolic activation: without S9, exposure time: 24 hours	1.22	2.68	84
concentration: 198 (µM), S9 metabolic activation: with S9, exposure time: 3-4 hours	0.28	1.22	121
concentration: 198 (µM), S9 metabolic activation: without S9, exposure time: 24 hours	1.44	2.62	91.2
